Test results published in article PMC9243429.
Results are given in words; binding and its absence hold for the method and conditions named. In cells and extracts the contact can be indirect. Some binding calls cover weakened binding; strength is not graded here. Values belong to the molecule of their own block, whether it stands above or below them.

Chains of the proteins cited; added tags and fusions are not shown. Residues count along the entry.
UniProt Q92841: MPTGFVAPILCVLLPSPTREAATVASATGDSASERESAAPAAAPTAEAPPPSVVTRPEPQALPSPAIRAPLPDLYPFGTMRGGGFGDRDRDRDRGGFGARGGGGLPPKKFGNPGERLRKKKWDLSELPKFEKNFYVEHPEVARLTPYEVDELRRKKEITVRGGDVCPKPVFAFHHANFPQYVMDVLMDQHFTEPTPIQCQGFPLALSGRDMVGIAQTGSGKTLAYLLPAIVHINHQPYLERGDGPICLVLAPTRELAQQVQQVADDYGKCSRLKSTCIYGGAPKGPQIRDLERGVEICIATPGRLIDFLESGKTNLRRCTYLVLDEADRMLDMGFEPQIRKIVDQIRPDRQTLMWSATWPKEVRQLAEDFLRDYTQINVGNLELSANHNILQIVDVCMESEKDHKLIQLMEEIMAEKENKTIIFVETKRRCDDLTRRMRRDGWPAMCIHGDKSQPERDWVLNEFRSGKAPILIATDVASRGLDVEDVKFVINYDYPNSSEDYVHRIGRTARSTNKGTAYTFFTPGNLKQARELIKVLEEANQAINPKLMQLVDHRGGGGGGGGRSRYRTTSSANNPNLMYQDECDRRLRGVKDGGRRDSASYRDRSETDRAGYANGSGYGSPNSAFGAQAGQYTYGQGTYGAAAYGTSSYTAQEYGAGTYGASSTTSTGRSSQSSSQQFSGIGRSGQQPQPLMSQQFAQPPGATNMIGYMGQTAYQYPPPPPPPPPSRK
UniProt P07996, residues 19-1170: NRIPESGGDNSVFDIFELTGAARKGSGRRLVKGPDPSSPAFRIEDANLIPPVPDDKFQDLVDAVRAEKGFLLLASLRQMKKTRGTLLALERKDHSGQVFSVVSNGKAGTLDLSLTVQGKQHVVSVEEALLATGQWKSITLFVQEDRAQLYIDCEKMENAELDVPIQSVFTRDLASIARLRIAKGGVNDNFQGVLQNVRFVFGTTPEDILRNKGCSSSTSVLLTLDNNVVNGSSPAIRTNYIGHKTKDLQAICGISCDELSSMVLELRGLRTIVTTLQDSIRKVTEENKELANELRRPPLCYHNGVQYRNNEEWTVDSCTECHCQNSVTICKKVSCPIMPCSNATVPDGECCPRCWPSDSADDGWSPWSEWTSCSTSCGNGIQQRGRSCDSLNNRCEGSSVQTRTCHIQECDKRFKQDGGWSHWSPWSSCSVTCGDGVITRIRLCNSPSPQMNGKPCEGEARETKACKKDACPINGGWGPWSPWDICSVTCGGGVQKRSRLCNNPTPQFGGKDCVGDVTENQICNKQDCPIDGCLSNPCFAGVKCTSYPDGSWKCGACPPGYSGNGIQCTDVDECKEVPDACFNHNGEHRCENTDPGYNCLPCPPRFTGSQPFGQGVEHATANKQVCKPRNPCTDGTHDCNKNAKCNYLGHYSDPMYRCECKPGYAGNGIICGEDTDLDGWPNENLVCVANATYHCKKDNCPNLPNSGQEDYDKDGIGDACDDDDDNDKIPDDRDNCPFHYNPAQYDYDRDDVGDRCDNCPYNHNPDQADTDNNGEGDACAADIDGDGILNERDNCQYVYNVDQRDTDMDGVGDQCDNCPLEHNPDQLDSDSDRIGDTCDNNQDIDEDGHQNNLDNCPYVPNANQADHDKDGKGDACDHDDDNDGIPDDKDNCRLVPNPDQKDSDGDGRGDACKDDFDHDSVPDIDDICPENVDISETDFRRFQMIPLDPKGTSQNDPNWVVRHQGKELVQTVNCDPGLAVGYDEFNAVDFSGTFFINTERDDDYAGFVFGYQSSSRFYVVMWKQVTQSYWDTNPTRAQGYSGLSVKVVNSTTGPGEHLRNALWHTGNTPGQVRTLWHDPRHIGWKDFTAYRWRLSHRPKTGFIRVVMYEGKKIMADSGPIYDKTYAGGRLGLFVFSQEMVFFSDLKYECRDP

How the values were obtained:
[1] = molecular target: DEAD-box RNA helicase 17 (DDX17) (human (endogenous in HepG2-NTCP)) (UniProt Q92841); experiment: co-IP; reciprocal co-IP of DDX17 and its four candidate partners (Figure 5C); RIPA lysate, 600 ug total protein, primary antibody overnight at 4°C, protein A/G magnetic beads, Western blot; cells not given
[2] = molecular target: DEAD-box RNA helicase 17 (DDX17) (human (endogenous in HepG2-NTCP)) (UniProt Q92841); experiment: co-IP; co-IP with anti-DDX17 antibody in HBV-infected HepG2-NTCP cells transfected with a plasmid expressing ZWINT (Figure 5D); RIPA lysate, protein A/G magnetic beads, Western blot

binding [1]: binds
B2: ZW10 interacting kinetochore protein (ZWINT) (protein, UniProt O95229 1-277)
chain: MEAAETEAEAAALEVLAEVAGILEPVGLQEEAELPAKILVEFVVDSQKKDKLLCSQLQVADFLQNILAQEDTAKGLDPLASEDTSRQKAIAAKEQWKELKATYREHVEAIKIGLTKALTQMEEAQRKRTQLREAFEQLQAKKQMAMEKRRAVQNQWQLQQEKHLQHLAEVSAEVRERKTGTQQELDRVFQKLGNLKQQAEQERDKLQRYQTFLQLLYTLQGKLLFPEAEAEAENLPDDKPQQPTRPQEQSTGDTMGRDPGVSFKAVGLQPAGDVNLP

binding [2]: binds
B3: ZW10 interacting kinetochore protein (ZWINT), expressed from a plasmid (protein, UniProt O95229 1-277)
chain: B2 chain

Further lines, the molecule ahead of its results:

Molecule: THBS1 (from UniProt P07996 19-1170)
binding [1]: no binding

B1: SLA2 (protein, UniProt Q9H6Q3 1-261)
chain: MGSLPSRRKSLPSPSLSSSVQGQGPVTMEAERSKATAVALGSFPAGGPAELSLRLGEPLTIVSEDGDWWTVLSEVSGREYNIPSVHVAKVSHGWLYEGLSREKAEELLLLPGNPGGAFLIRESQTRRGSYSLSVRLSRPASWDRIRHYRIHCLDNGWLYISPRLTFPSLQALVDHYSELADDICCLLKEPCVLQRAGPLPGKDIPLPVTVQRTPLNWKELDSSLLFSEAATGEESLLSEGLRESLSFYISLNDEAVSLDDA
binding [1]: no binding

B4: KIF23 (protein, UniProt Q02241 1-960)
chain: MKSARAKTPRKPTVKKGSQTNLKDPVGVYCRVRPLGFPDQECCIEVINNTTVQLHTPEGYRLNRNGDYKETQYSFKQVFGTHTTQKELFDVVANPLVNDLIHGKNGLLFTYGVTGSGKTHTMTGSPGEGGLLPRCLDMIFNSIGSFQAKRYVFKSNDRNSMDIQCEVDALLERQKREAMPNPKTSSSKRQVDPEFADMITVQEFCKAEEVDEDSVYGVFVSYIEIYNNYIYDLLEEVPFDPIKPKPPQSKLLREDKNHNMYVAGCTEVEVKSTEEAFEVFWRGQKKRRIANTHLNRESSRSHSVFNIKLVQAPLDADGDNVLQEKEQITISQLSLVDLAGSERTNRTRAEGNRLREAGNINQSLMTLRTCMDVLRENQMYGTNKMVPYRDSKLTHLFKNYFDGEGKVRMIVCVNPKAEDYEENLQVMRFAEVTQEVEVARPVDKAICGLTPGRRYRNQPRGPVGNEPLVTDVVLQSFPPLPSCEILDINDEQTLPRLIEALEKRHNLRQMMIDEFNKQSNAFKALLQEFDNAVLSKENHMQGKLNEKEKMISGQKLEIERLEKKNKTLEYKIEILEKTTTIYEEDKRNLQQELETQNQKLQRQFSDKRRLEARLQGMVTETTMKWEKECERRVAAKQLEMQNKLWVKDEKLKQLKAIVTEPKTEKPERPSRERDREKVTQRSVSPSPVPLSSNYIAQISNGQQLMSQPQLHRRSNSCSSISVASCISEWEQKIPTYNTPLKVTSIARRRQQEPGQSKTCIVSDRRRGMYWTEGREVVPTFRNEIEIEEDHCGRLLFQPDQNAPPIRLRHRRSRSAGDRWVDHKPASNMQTETVMQPHVPHAITVSVANEKALAKCEKYMLTHQELASDGEIETKLIKGDIYKTRGGGQSVQFTDIETLKQESPNGSRKRRSSTVAPAQPDGAESEWTDVETRCSVAVEMRAGSQLGPGYQHHAQPKRKKP
binding [1]: no binding
